Test results reported in the supplement of paper PMC11417369.
± gives the standard deviation of the averaged measurements. The list shows a part of the results.

test system: PfAP2-I AP2 domain 3 (GST-tagged); test: gcPBM binding intensity (ln(normalized median fluorescence intensity)); higher = stronger DNA binding
Procedure, shortened: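 Binding of GST-tagged P. falciparum DNA-binding domains, expressed in E. coli and used at about 25 μg on average, was carried out for 1 h in 1× PBS containing 1% milk, 0.2 mg/ml BSA, 0.5% salmon testes DNA and 0.03% Triton X-100. The target was an Agilent 4 × 180k array of primer-extended double-stranded 36-bp intergenic genomic probes plus negative controls, read with Alexa488 anti-GST antibody at 488 nm. Binding intensity is the highest Masliner-normalised natural-log median intensity across replicate spots of either probe orientation.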

Row | Sequence | gcPBM binding intensity (ln)
1 | TATATTATTTATTAGACACACATTATTAATATATTT [CACACA_site1078] | 7.75 ± 0.19
2 | TGGATTTTGTATTAATGTACATATATATATATATAT [XGTACX_site4442] | 9.45 ± 0.45
3 | CAGATAGACTTATATGCATGCATTCACATACCAACA [TGCATGCA_site163] | 8.23 ± 0.66
4 | AACAACATTTTGTAATGTACATATTTACTTATATTC [XGTACX_site7251] | 7.65 ± 0.45
5 | CCTCTTAATATGTGCACACTAAATTATAACATAATT [CACACA_site3259] | 10.48 ± 0.014
6 | TGAAAAGTAAAATACACACACATAATCTAATTTATA [CACACA_site7024] | 7.56 ± 0.34
7 | GGTTAACATAAATATATACACACCAATGATGGCATT [CACACA_site1568] | 7.82 ± 0.57
8 | AAATATAAACTCAGCACACAAACATATATATGTCAT [CACACA_site4004] | 7.79 ± 0.59
9 | TTCTAATATTTACATAATATATAGAAATATAAAGGT [XGTACX_negctrl_site504] | 7.8 ± 0.47
10 | GTAGACATTATAATGGTGCAAAAAAATTAACAAAAA [GTGCAC_site9891] | 10.9 ± 0.3
11 | ATGGTATAAAAAAATACACACTTATATATATTCTTA [CACACA_site4427] | 7.66 ± 0.38
12 | TTTTTTTTTTTTTCTCGTACAAAATAATACCTTTTT [XGTACX_site3867] | 8.01 ± 0.54
13 | AGGGAATATTTTTATGCATGTGCTTACACATTACAA [TGCATGCA_site830] | 8.12 ± 0.86
14 | AAAAAAAACGGACACACACACATACAAAATATATAT [CACACA_site4910] | 8.11 ± 0.49
15 | TAAAATTTTGTTTGTTGTACTTATTTTCGTGTCAAC [XGTACX_site8277] | 8.03 ± 0.25
16 | AAAGATGAATTTTTTACACACACCATTTTATAATAT [CACACA_site3676] | 7.96 ± 0.61
17 | AAAAAAAAAAAAAAAAAAAAATATATATATATATAT [GTGCAC_negctrl_site426] | 9.75 ± 0.2
18 | AAAAGTATAATAAATTGTACTAACAAATATTTATGT [XGTACX_site7721] | 7.54 ± 0.47
19 | TACTTATCGTTAAATTGTACTAAAAAATATTTTTCT [XGTACX_site4665] | 7.67 ± 0.57
20 | AATGTAAAACCTCCTACACACACCAATTAACTATTC [CACACA_site2112] | 7.99 ± 0.44
21 | GCCATTGTACCATCCACACACATATATATCTGTATA [CACACA_site5490] | 8.54 ± 0.7
22 | TTATAATAAAAGGCTTTACAATTATTAAACAAATAA [GTGCAC_negctrl_site480] | 7.46 ± 0.57

Row | Sequence | gcPBM binding intensity (ln)
23 | AAAAAAGAAGAGCACACACACATATATAAATATAAA [CACACA_site631] | 8.135 ± 0.078
24 | TGGTATTAAGGAGAGGGTACAAAAAAAAAAAAAAAA [XGTACX_site1668] | 8.15 ± 0.57
25 | TTTTTTTTTTTAAATACATGCATGTCCTATTTAAAT [TGCATGCA_site494] | 7.92 ± 0.89
26 | TTTTTTTGATAAAAGGTGCTACAAGATGAATACATA | 8.9 ± 0.25
27 | ATAAATAAAAAAAAAAAAAAAAAAAAAAAAAAAATA [CACACA_negctrl_site1064] | 7.53 ± 0.37
28 | GTTGTATAAAATAATACATGCATGTCCTACATATAT [TGCATGCA_site162] | 8.01 ± 0.59
29 | GTAATATATTTTTATGGTACACGAACTAGCCAAAAA [XGTACX_site6307] | 7.95 ± 0.4
30 | CCGCATTTTACAGACACACACAATTTATATTACGGT [CACACA_site6974] | 7.88 ± 0.47
31 | AGTAATAACTATATATGTACATATATATATTATTAG [XGTACX_site1113] | 7.66 ± 0.47
32 | TAATATATTTATAAGTGTACACATTATATAAATCCC [XGTACX_site8875] | 8.1 ± 0.13
33 | AGAGAGAAAGCTATAACATGCAACAATTTTTAGAAA [TGCATGCA_site95] | 7.58 ± 0.77
34 | TCAGAGTGAAGTTATACACACATGGTTTTTTTTTTT [CACACA_site2116] | 7.32 ± 0.53
35 | AGGAGGATATTACACAGTACCCAGTAACTCTACGGA [XGTACX_site1998] | 7.61 ± 0.52
36 | AAGTATGCGTTATATACACACATACATTTATATATC [CACACA_site6207] | 7.84 ± 0.52
37 | AAAAATGGTGTTAACACACACATATAAATAAATATA [CACACA_site6412] | 7.79 ± 0.27
38 | AACATAAGTAATATTTGTACATATATAATAATATAT [XGTACX_site5123] | 7.49 ± 0.41
39 | TAAATGTGAAATTTTATATTTTATATAATATACAAT [CACACA_negctrl_site76] | 7.34 ± 0.52
40 | AAGGATCACCCACAAACACACATATATATATATATA [CACACA_site559] | 9.71 ± 0.46
41 | CTCTTATACATATTCCTGCACTTATTTTTAAAAACA [GTGCAC_site9620] | 9.79 ± 0.3
42 | ATCATATTTTTATGTGTGCACTTTTTTTTTTTTTTT [GTGCAC_site9555] | 10.25 ± 0.014
43 | CAATTCTTAAGTTCTTGTACGAAAAACGACAATTTA [XGTACX_site3890] | 7.47 ± 0.38
44 | ACACATATATATATATATATATATATATATATATAT [CACACA_negctrl_site1766] | 9.25 ± 0.52
